Values joined by “and” are separate entries in the source; they are usually repeats but may differ in a detail not shown here. Identical values can stand only once.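 In this assay, cells in 96-well plates receive the compound at five concentrations for 48 hours. Endpoints are linearly interpolated between the surrounding concentrations. GI50 marks 50% less growth. The concentration for full growth arrest is given as TGI.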
How the values were obtained:
Test in all cases: DTP human tumour cell line panel, 48 h
BT-549 breast = system: BT-549 breast
DU-145 prostate = system: DU-145 prostate
HS 578T breast = system: HS 578T breast
M14 melanoma = system: M14 melanoma
MDA-MB-231 breast = system: MDA-MB-231 breast
MDA-MB-435 = system: MDA-MB-435
PC-3 prostate = system: PC-3 prostate
SK-MEL-5 melanoma = system: SK-MEL-5 melanoma

`CN[C@H]1C[C@@H]2O[C@@](C)([C@H]1OC)n1c3ccccc3c3c4c(c5c6ccccc6n2c5c31)C(=O)NC4` was tested, and the GI50 (BT-549 breast) was 6.86 nM, the TGI (BT-549 breast) was 84.2 nM and the GI50 (DU-145 prostate) was 1.54 nM. For the same molecule, the TGI (DU-145 prostate) was 415 nM, the GI50 (HS 578T breast) was 0.607 nM and the TGI (HS 578T breast) was 134 nM. It also gave a GI50 (M14 melanoma) of 6.47 nM, a TGI (M14 melanoma) of 191 nM and a GI50 (MDA-MB-231 breast) of 0.897 nM. It also gave a TGI (MDA-MB-231 breast) of 239 nM, a GI50 (MDA-MB-435) of 25 nM and a TGI (MDA-MB-435) of 279 nM. The GI50 (PC-3 prostate) was 3.96 nM, the GI50 (SK-MEL-5 melanoma) was 12.8 nM and the TGI (SK-MEL-5 melanoma) was 214 nM and 164 nM and 125 nM.

Source: PubChem BioAssay (NCI)
